Results on 86 sequences are retold here after the supplement of paper PMC3334620.

The full ranking holds about 33,000 sequences; the median of “E-score (-0.5 to 0.5)” is about -0.036, and the highest 2% start at about 0.37. The list shows a part of the results.

This test deals with T1, Yer064c (UniProt P40041).
T1 sequence: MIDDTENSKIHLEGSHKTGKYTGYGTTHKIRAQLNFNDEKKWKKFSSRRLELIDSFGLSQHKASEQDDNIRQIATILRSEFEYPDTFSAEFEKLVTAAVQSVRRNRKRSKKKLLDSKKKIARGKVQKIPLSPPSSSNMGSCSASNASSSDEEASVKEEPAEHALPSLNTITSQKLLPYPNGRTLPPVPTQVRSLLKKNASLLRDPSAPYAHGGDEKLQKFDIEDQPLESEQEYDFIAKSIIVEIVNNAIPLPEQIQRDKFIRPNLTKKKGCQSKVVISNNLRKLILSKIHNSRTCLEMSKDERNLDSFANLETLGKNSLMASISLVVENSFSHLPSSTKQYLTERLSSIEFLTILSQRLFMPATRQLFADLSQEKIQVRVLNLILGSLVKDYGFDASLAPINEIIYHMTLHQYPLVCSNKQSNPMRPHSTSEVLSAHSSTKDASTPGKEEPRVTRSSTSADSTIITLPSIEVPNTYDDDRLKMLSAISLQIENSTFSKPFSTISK
The test can be described thus: PBM E-score (8-mer binding enrichment) (E-score (-0.5 to 0.5)); higher = stronger / more preferred TF binding; most listed sequences are background and not binding sites. As to conditions: protein concentration: 200 nM; construct: GST-full length. In a few lines: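 Each ungapped eight-base word and its reverse complement, pooled, received an E-score from the Universal PBM Analysis Suite. Underlying scans, normalised with masliner, recorded fluorescent anti-GST bound to GST-tagged yeast transcription factors. These were applied at about 100-200 nM to universal all-10-mer Agilent arrays double-stranded by primer extension.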
As for CAAGGATA, the “PBM E-score” value was -0.104. With CACGGTAG, the “PBM E-score” value was -0.0714. On to GTCGTTAA, for which the “PBM E-score” value worked out at 0.151. In the case of CATTATGA, the “PBM E-score” value was 0.195.

Turning to CACTAGTG, the “PBM E-score” value stood at 0.0783. For the sequence CCCAAAAC, the “PBM E-score” value came to 0.0481. Regarding AGCCCCTC, the “PBM E-score” value was -0.186. In the case of GACGGATA, the “PBM E-score” value was -0.179. Under ATCGCTTA stands -0.0645; under TGCACTAA, 0.106; under CGGGGGAG, -0.149. The same measure for AGCACATC: 0.0794; for AGATTCGG: -0.0237; for GAGTATGA: 0.27. As to ACTATTGA, the “PBM E-score” value is 0.291.

In the case of TCCGATAA, the “PBM E-score” value amounted to 0.192. On to AGTGGATA, for which the “PBM E-score” value is -0.123. GATTTTAC: the “PBM E-score” value is 0.129.

As for ACTTGAGC, the “PBM E-score” value amounted to 0.171. Turning to ACATGAGT, the “PBM E-score” value came to 0.375. CCTATATC: the “PBM E-score” value is -0.169. The same measure for AATTCCTC: -0.172; for GTCGTGGA: 0.142.

For CTCGAAGC, the “PBM E-score” value was -0.046.

With CGAAATAG, the “PBM E-score” value came out at 0.0501.

As to ACCAGGAG, the “PBM E-score” value is -0.209. In the case of ACAAGACC, the “PBM E-score” value was -0.213. The same measure for AAGTAGAA: -0.0919; for AGAGGTAC: -0.211; for TCTGCGCA: -0.129. CTCATAAG: the “PBM E-score” value was determined as 0.231.

For CGTCCGAC, the “PBM E-score” value was determined as 0.0463. The same measure for CATCCCCC: -0.301. Consider GGAACGAC, for which the “PBM E-score” value is -0.00931. Under GACGAAGC stands -0.0864; under GCCGCGAA, -0.216.

Regarding CTAATAGA, the “PBM E-score” value amounted to 0.0502. As for ATATAGTA, the “PBM E-score” value worked out at 0.128. As for GATCTTGC, the “PBM E-score” value is -0.194. The same measure for CGACCAGA: 0.00591; for ATCAGTTG: 0.157.

As for CTTCCATC, the “PBM E-score” value is -0.0977. As for GAGCGATC, the “PBM E-score” value is -0.205. Under TCGGCAAA stands -0.171; under ATCGCACG, -0.0772.

For the sequence GACATAGC, the “PBM E-score” value is -0.0869. The same measure for AAGCGCGA: 0.0607; for ATCGGGGC: -0.221; for ACCAAGGA: 0.00799. Turning to AATAGACT, the “PBM E-score” value was 0.262.

On to ACTCTCCC, for which the “PBM E-score” value came out at 0.129. With ATAACCCC, the “PBM E-score” value was -0.111. As for CCGTGTAC, the “PBM E-score” value was -0.137. CAGTACTA: the “PBM E-score” value turned out to be 0.094. In the case of CCGAACGG, the “PBM E-score” value was -0.0813. As to CTCCACAA, the “PBM E-score” value was -0.009. For the sequence CTAAAGGA, the “PBM E-score” value was 0.0288. GGGTAGGA: the “PBM E-score” value is 0.0126. For the sequence ATTTTTTG, the “PBM E-score” value came out at 0.0826.

As to GCCCAAAA, the “PBM E-score” value was -0.036. Consider AGTGGCAA, for which the “PBM E-score” value was 0.0137. For the sequence ATAAGTCG, the “PBM E-score” value is 0.223. Under AACCCTCC stands -0.341. Take AGGAGACT: the “PBM E-score” value was 0.331. Regarding AACGTTGG, the “PBM E-score” value was -0.0221. Under CACGCTCA stands 0.166; under ATGTGCGA, 0.0392; under CGTGCGCC, -0.229. As for ATGGCGGA, the “PBM E-score” value was -0.121. Regarding ATTGGTCC, the “PBM E-score” value was -0.109. Under CACCAAGA stands -0.059.

For the sequence GCGGATAC, the “PBM E-score” value was 0.11. Take AGGACCGC: the “PBM E-score” value is -0.218. Under GAAATTTC stands -0.5; under GAGTACTA, 0.337; under CGACTACA, 0.351. Turning to AGCTATAG, the “PBM E-score” value is -0.185. For AGCAAAGA, the “PBM E-score” value was -0.0486. Regarding GGGGGTAC, the “PBM E-score” value is -0.0892. Under AGTTGAAT stands 0.109. Take AAAGAGCT: the “PBM E-score” value was -0.0281. Take CAGCTCGC: the “PBM E-score” value was -0.0272.

As to CTGAAAGC, the “PBM E-score” value was -0.0517.

Take ATGGACTG: the “PBM E-score” value came out at 0.0718. With TCCACCAA, the “PBM E-score” value stood at 0.00825. As for AATTTCTC, the “PBM E-score” value worked out at 0.0426.
